# Test results as given in the supplement of paper PMC8728848.
# This is one part of the list.
# B1: ClecSol-Fc (Cryptosporidium parvum) (protein)
# chain: CPEGWISNGEKTRCFKLVTFDRPRTFSHGFKACNDLGGTEVETRRRNGSKETNEYPVTLASVYKLSDEEAIRRTLVEQGDIHKTANGCFVGLRKYAFFRYPPGWYWIDSGSPVSVRDSEINWTSSYNASWLLRFKFPFEKCGFFDIGGLGRRPCWLIDSELSCAVCGTVAYDSGGLNPNKYSELIKQTDEIISKEPKLDLPGYNNLNCTDAWENNLSVGLCQNVSNILDSAWSSYQSSLNFPSINFNWKEDSTNEGGDQVYHNSYLDLPRYKQKKTFYWDQDPGTIPALSDEMKLIGLSAQPTYHPLDRSSSGSFESDSTESGRANEERNDTLEEMIYKQSSDSIEDILVPVTKPIFSDYSSIGRNSGVEEVYSSNVSTISSKGVVFPNTTTSSDNDFTKNNPANSSKHTSTSTTTNTTTTTTRTTTTTTTTTTTTTTTTTTTTETTTTKKSTTATKNTTTT
# Tests used:
# Experiment in all cases: glycan array binding signal (z-score within array); higher = stronger binding
# Details in all cases: glycan notation: IUPAC condensed, linker removed
# GlcNAc(b1-3)Gal(b1-4)Glc = target: GlcNAc(b1-3)Gal(b1-4)Glc
# Summary of the method: (§1)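 Arrays were curated from the Consortium for Functional Glycomics database, 3228 in total, and kept only where the protein sequence was available. Binding is expressed as a within-array Z-score. This score was averaged across arrays of the same protein sequence at different concentrations or buffers and across linkers, and negative values can be read as non-binding.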
# [1] = target: GlcNAc(b1-3)Gal(b1-4)GlcNAc
# Summary of the method: as §1
# [2] = target: GlcNAc(b1-3)Gal(b1-4)GlcNAc(b1-2)Man(a1-3)[GlcNAc(b1-3)Gal(b1-4)GlcNAc(b1-2)Man(a1-6)]Man(b1-4)GlcNAc(b1-4)GlcNAc
# Summary of the method: as §1
# [3] = target: GlcNAc(b1-3)Gal(b1-4)GlcNAc(b1-2)Man(a1-3)[GlcNAc(b1-3)Gal(b1-4)GlcNAc(b1-2)Man(a1-6)]Man(b1-4)GlcNAc(b1-4)[Fuc(a1-6)]GlcNAc
# Summary of the method: as §1
# [4] = target: GlcNAc(b1-3)Gal(b1-4)GlcNAc(b1-2)[GlcNAc(b1-3)Gal(b1-4)GlcNAc(b1-6)]Man(a1-6)[GlcNAc(b1-3)Gal(b1-4)GlcNAc(b1-2)Man(a1-3)]Man(b1-4)GlcNAc(b1-4)GlcNAc
# Summary of the method: as §1
# [5] = target: GlcNAc(b1-3)Gal(b1-4)GlcNAc(b1-3)Gal(b1-4)GlcNAc
# Summary of the method: as §1
# [6] = target: GlcNAc(b1-3)Gal(b1-4)GlcNAc(b1-3)Gal(b1-4)GlcNAc(b1-2)Man(a1-3)[GlcNAc(b1-3)Gal(b1-4)GlcNAc(b1-3)Gal(b1-4)GlcNAc(b1-2)Man(a1-6)]Man(b1-4)GlcNAc(b1-4)GlcNAc
# Summary of the method: as §1
# [7] = target: GlcNAc(b1-3)Gal(b1-4)GlcNAc(b1-3)Gal(b1-4)GlcNAc(b1-2)Man(a1-3)[GlcNAc(b1-3)Gal(b1-4)GlcNAc(b1-3)Gal(b1-4)GlcNAc(b1-2)Man(a1-6)]Man(b1-4)GlcNAc(b1-4)[Fuc(a1-6)]GlcNAc
# Summary of the method: as §1
# [8] = target: GlcNAc(b1-3)Gal(b1-4)GlcNAc(b1-3)Gal(b1-4)GlcNAc(b1-2)[GlcNAc(b1-3)Gal(b1-4)GlcNAc(b1-3)Gal(b1-4)GlcNAc(b1-6)]Man(a1-6)[GlcNAc(b1-3)Gal(b1-4)GlcNAc(b1-3)Gal(b1-4)GlcNAc(b1-2)Man(a1-3)]Man(b1-4)GlcNAc(b1-4)[Fuc(a1-6)]GlcNAc
# Summary of the method: as §1
# [9] = target: GlcNAc(b1-3)Gal(b1-4)GlcNAc(b1-3)Gal(b1-4)GlcNAc(b1-3)Gal(b1-4)GlcNAc(b1-2)Man(a1-3)[GlcNAc(b1-3)Gal(b1-4)GlcNAc(b1-3)Gal(b1-4)GlcNAc(b1-3)Gal(b1-4)GlcNAc(b1-2)Man(a1-6)]Man(b1-4)GlcNAc(b1-4)GlcNAc
# Summary of the method: as §1
# [10] = target: GlcNAc(b1-3)Gal(b1-4)GlcNAc(b1-3)Gal(b1-4)GlcNAc(b1-3)Gal(b1-4)GlcNAc(b1-2)Man(a1-3)[GlcNAc(b1-3)Gal(b1-4)GlcNAc(b1-3)Gal(b1-4)GlcNAc(b1-3)Gal(b1-4)GlcNAc(b1-2)Man(a1-6)]Man(b1-4)GlcNAc(b1-4)[Fuc(a1-6)]GlcNAc
# Summary of the method: as §1
# [11] = target: GlcNAc(b1-3)Gal(b1-4)GlcNAc(b1-3)Gal(b1-4)GlcNAc(b1-3)Gal(b1-4)GlcNAc(b1-2)[GlcNAc(b1-3)Gal(b1-4)GlcNAc(b1-3)Gal(b1-4)GlcNAc(b1-3)Gal(b1-4)GlcNAc(b1-6)]Man(a1-6)[GlcNAc(b1-3)Gal(b1-4)GlcNAc(b1-3)Gal(b1-4)GlcNAc(b1-3)Gal(b1-4)GlcNAc(b1-2)Man(a1-3)]Man(b1-4)GlcNAc(b1-4)[Fuc(a1-6)]GlcNAc
# Summary of the method: as §1
# [12] = target: GlcNAc(b1-3)Gal(b1-4)GlcNAc(b1-3)Gal(b1-4)GlcNAc(b1-3)Gal(b1-4)GlcNAc(b1-3)Gal(b1-4)GlcNAc(b1-2)Man(a1-3)[GlcNAc(b1-3)Gal(b1-4)GlcNAc(b1-3)Gal(b1-4)GlcNAc(b1-3)Gal(b1-4)GlcNAc(b1-3)Gal(b1-4)GlcNAc(b1-2)Man(a1-6)]Man(b1-4)GlcNAc(b1-4)GlcNAc
# Summary of the method: as §1
# [13] = target: GlcNAc(b1-3)Gal(b1-4)GlcNAc(b1-3)Gal(b1-4)GlcNAc(b1-3)Gal(b1-4)GlcNAc(b1-3)Gal(b1-4)GlcNAc(b1-2)Man(a1-3)[GlcNAc(b1-3)Gal(b1-4)GlcNAc(b1-3)Gal(b1-4)GlcNAc(b1-3)Gal(b1-4)GlcNAc(b1-3)Gal(b1-4)GlcNAc(b1-2)Man(a1-6)]Man(b1-4)GlcNAc(b1-4)[Fuc(a1-6)]GlcNAc
# Summary of the method: as §1
# [14] = target: GlcNAc(b1-3)Gal(b1-4)GlcNAc(b1-3)Gal(b1-4)GlcNAc(b1-3)Gal(b1-4)GlcNAc(b1-3)Gal(b1-4)GlcNAc(b1-2)[GlcNAc(b1-3)Gal(b1-4)GlcNAc(b1-3)Gal(b1-4)GlcNAc(b1-3)Gal(b1-4)GlcNAc(b1-3)Gal(b1-4)GlcNAc(b1-6)]Man(a1-6)[GlcNAc(b1-3)Gal(b1-4)GlcNAc(b1-3)Gal(b1-4)GlcNAc(b1-3)Gal(b1-4)GlcNAc(b1-3)Gal(b1-4)GlcNAc(b1-2)Man(a1-3)]Man(b1-4)GlcNAc(b1-4)[Fuc(a1-6)]GlcNAc
# Summary of the method: as §1
# [15] = target: GlcNAc(b1-3)Gal(b1-4)GlcNAc(b1-3)Gal(b1-4)GlcNAc(b1-3)GalNAc
# Summary of the method: as §1
# [16] = target: GlcNAc(b1-3)Gal(b1-4)GlcNAc(b1-3)GalNAc
# Summary of the method: as §1
# [17] = target: GlcNAc(b1-3)Gal(b1-4)GlcNAc(b1-3)[GlcNAc(b1-3)Gal(b1-4)GlcNAc(b1-3)]GalNAc
# Summary of the method: as §1
# [18] = target: GlcNAc(b1-3)Gal(b1-4)GlcNAc(b1-6)[Gal(b1-3)]GalNAc
# Summary of the method: as §1
# [19] = target: GlcNAc(b1-3)Gal(b1-4)GlcNAc(b1-6)[GlcNAc(b1-3)Gal(b1-3)]GalNAc
# Summary of the method: as §1
# [20] = target: GlcNAc(b1-3)Gal(b1-4)GlcNAc(b1-6)[GlcNAc(b1-3)]Gal(b1-4)GlcNAc
# Summary of the method: as §1
# GlcNAc(b1-3)GalNAc = target: GlcNAc(b1-3)GalNAc
# Summary of the method: as §1
# GlcNAc(b1-3)Man = target: GlcNAc(b1-3)Man
# Summary of the method: as §1
# [21] = target: GlcNAc(b1-3)[GlcNAc(b1-4)][GlcNAc(b1-6)]GlcNAc
# Summary of the method: as §1
# [22] = target: GlcNAc(b1-3)[GlcNAc(b1-6)]Gal(b1-4)GlcNAc
# Summary of the method: as §1
# [23] = target: GlcNAc(b1-3)[GlcNAc(b1-6)]GalNAc
# Summary of the method: as §1
# [24] = target: GlcNAc(b1-4)Gal(b1-4)GlcNAc
# Summary of the method: as §1
# GlcNAc(b1-4)GlcNAc = target: GlcNAc(b1-4)GlcNAc
# Summary of the method: as §1
# [25] = target: GlcNAc(b1-4)GlcNAc(b1-4)GlcNAc
# Summary of the method: as §1
# [26] = target: GlcNAc(b1-4)GlcNAc(b1-4)GlcNAc(b1-4)GlcNAc(b1-4)GlcNAc
# Summary of the method: as §1
# [27] = target: GlcNAc(b1-4)GlcNAc(b1-4)GlcNAc(b1-4)GlcNAc(b1-4)GlcNAc(b1-4)GlcNAc
# Summary of the method: as §1
# [28] = target: GlcNAc(b1-4)[GlcNAc(b1-6)]GalNAc
# Summary of the method: as §1
# [29] = target: GlcNAc(b1-6)Gal(b1-4)GlcNAc
# Summary of the method: as §1
# GlcNAc(b1-6)GalNAc = target: GlcNAc(b1-6)GalNAc
# Summary of the method: as §1
# [30] = target: GlcNAc6S(b1-3)Gal(b1-4)GlcNAc
# Summary of the method: as §1
# Kdn(a2-3)Gal(b1-3)GalNAc = target: Kdn(a2-3)Gal(b1-3)GalNAc
# Summary of the method: as §1
# Kdn(a2-3)Gal(b1-3)GlcNAc = target: Kdn(a2-3)Gal(b1-3)GlcNAc
# Summary of the method: as §1
binder,measurement,setting,value
B1,glycan array binding signal (z-score),GlcNAc(b1-3)Gal(b1-4)Glc,0.02
same,glycan array binding signal (z-score),[1],-0.088
same,glycan array binding signal (z-score),[2],-0.005
same,glycan array binding signal (z-score),[3],0.693
same,glycan array binding signal (z-score),[4],-0.125
same,glycan array binding signal (z-score),[5],-0.107
same,glycan array binding signal (z-score),[6],0.047
same,glycan array binding signal (z-score),[7],-0.079
same,glycan array binding signal (z-score),[8],0.104
same,glycan array binding signal (z-score),[9],0.082
same,glycan array binding signal (z-score),[10],0.057
same,glycan array binding signal (z-score),[11],-0.077
same,glycan array binding signal (z-score),[12],-0.101
same,glycan array binding signal (z-score),[13],0.18
same,glycan array binding signal (z-score),[14],0.166
same,glycan array binding signal (z-score),[15],0.074
same,glycan array binding signal (z-score),[16],-0.187
same,glycan array binding signal (z-score),[17],0.069
same,glycan array binding signal (z-score),[18],-0.215
same,glycan array binding signal (z-score),[19],-0.115
same,glycan array binding signal (z-score),[20],-0.105
same,glycan array binding signal (z-score),GlcNAc(b1-3)GalNAc,-0.143
same,glycan array binding signal (z-score),GlcNAc(b1-3)Man,-0.097
same,glycan array binding signal (z-score),[21],-0.066
same,glycan array binding signal (z-score),[22],0.016
same,glycan array binding signal (z-score),[23],-0.039
same,glycan array binding signal (z-score),[24],-0.054
same,glycan array binding signal (z-score),GlcNAc(b1-4)GlcNAc,5.31
same,glycan array binding signal (z-score),[25],-0.211
same,glycan array binding signal (z-score),[26],-0.176
same,glycan array binding signal (z-score),[27],0.013
same,glycan array binding signal (z-score),[28],-0.08
same,glycan array binding signal (z-score),[29],-0.166
same,glycan array binding signal (z-score),GlcNAc(b1-6)GalNAc,-0.188
same,glycan array binding signal (z-score),[30],-0.249
same,glycan array binding signal (z-score),Kdn(a2-3)Gal(b1-3)GalNAc,-0.114
same,glycan array binding signal (z-score),Kdn(a2-3)Gal(b1-3)GlcNAc,0.244
